{"source": "PubChem BioAssay AID902", "about": "(National Center for Advancing Translational Sciences (NCATS), 2007)", "note": "The whole screen tested about 130,000 compounds, of which about 1,900 (1.5%) were called active. The shares of active, inactive and inconclusive entries below differ from those in the screen. Calls come from the whole dose curve; as a rule, active = well fitted cell-killing curve with a large enough effect; inconclusive = small, poorly fitted or top-dose-only effect; inactive = no such curve, though single readings can be large or run the other way. Potencies of inconclusive entries are doubtful fits and often do not repeat. % is set by controls: 0 for no effect and ±100 for the full control effect; potency is the fitted concentration of half-maximal effect; tags give direction and shape of the fitted curve.", "data": [{"experiment": "qHTS Screen for Compounds that Selectively Target Cancer Cells with p53 Mutations: Cytotoxicity of p53ts Cells at the Nonpermissive Temperature; note: nearly all actives have a fitted effect of over 55% in size", "settings": "H1299-p53A138V viability at 39C, ATP luminescence, 24 h; activity change, negative = cell killing: at 46.1 µM (top of the series)", "values": [{"smiles": "Cc1c2cnn(CC(=O)N3CCN(c4ccc(F)cc4)CC3)c(=O)c2c(C)n1Cc1ccc(F)cc1", "Potency": "inconclusive: 31.6 µM [cytotoxic, single point]"}, {"smiles": "CCOC(=O)CSc1nc2ccc(NC(=O)c3ccc(C)cc3)cc2s1", "Potency": "active: 10 µM"}, {"smiles": "CCc1ccc(CNC(=O)Cc2ccc(NC(=O)N3CCSc4ncccc43)cc2)cc1", "Potency": "inconclusive: 5.01 µM [cytotoxic, partial curve]"}, {"smiles": "CCN(CC)CCCC(C)Nc1c2ccc(Cl)cc2nc2ccc(OC)cc12", "note": "(configuration not stated)", "Potency": "active: 10 µM"}, {"smiles": "COc1ccc(/C=C/c2cc(OC)cc(=O)o2)cc1", "Potency": "inconclusive: 12.6 µM [cytotoxic, partial curve]"}, {"smiles": "COc1ccc(S(=O)(=O)N2CCN(c3ccccc3F)CC2)cc1-c1noc(C)n1", "Potency": "active: 12.6 µM"}, {"smiles": "CCOc1ccc(CNC(=O)C2CCN(c3nnc(-n4cccc4CNc4ccc(C)cc4)s3)CC2)cc1OC", "Potency": "inconclusive: 10 µM [cytotoxic, partial curve, poor fit]"}, {"smiles": "O=C(c1cc(-c2ccc(Cl)cc2Cl)on1)N1CCOCC1", "Potency": "active: 10 µM"}, {"smiles": "Cc1ccc(O)c(C(CC(=O)NCC2(c3ccccc3)CCCC2)c2ccccc2)c1", "note": "(configuration not stated)", "Potency": "inconclusive: 15.8 µM [cytotoxic, single point]"}, {"smiles": "CCOC(=O)Cc1csc(NC(=O)COc2ccc(OC)cc2)n1", "Potency": "inconclusive: 20 µM [cytotoxic, partial curve]"}, {"smiles": "CCOC(=O)c1ccccc1NC(=O)C(=O)Nc1ccc2nc3n(c(=O)c2c1)CCCCC3", "Potency": "inconclusive: 20 µM [cytotoxic, partial curve, poor fit]"}, {"smiles": "O=C(O)c1cccc(COc2ccccc2Cl)c1", "Potency": "active: 12.6 µM"}, {"smiles": "CCc1ccc(N=C2NC(=O)CC(C(=O)Nc3ccc(OC)cc3)S2)cc1", "note": "(configuration not stated)", "activity change, negative = cell killing": "inactive: 10.5%"}, {"smiles": "COc1cc2c(cc1OC)C(COc1ccccc1OC)N(C(=O)CC(C)C)CC2", "note": "(configuration not stated)", "activity change, negative = cell killing": "inactive: -7.79%"}, {"smiles": "Cc1ccc(NC2=C(c3ccc(C(F)(F)F)cc3)C(=O)c3ccccc32)cc1C", "Potency": "inconclusive: 6.31 µM [cytotoxic, partial curve, poor fit]"}, {"smiles": "Cc1ccc(-c2cc(C(=O)NCc3cnn(C)c3C)c3cc(Br)ccc3n2)cc1", "Potency": "inconclusive: 10 µM [cytotoxic, partial curve]"}, {"smiles": "O=C(NCC(c1cccnc1)N1CCc2ccccc2C1)c1ccc(F)c(F)c1", "note": "(configuration not stated)", "Potency": "inconclusive: 1.58 µM [cytotoxic, partial curve]"}, {"smiles": "COc1cc(C(=O)Nc2nc(-c3cccs3)cs2)cc(OC)c1OC", "activity change, negative = cell killing": "inconclusive: -80.6% [cytotoxic]"}, {"smiles": "COc1ccc(Br)cc1CNC(=O)CCCn1c(=O)c2cccn2c2ccccc21", "Potency": "inconclusive: 15.8 µM [cytotoxic, partial curve]"}, {"smiles": "CCOC(=O)Cc1csc(NC(=O)c2csc3c2CCCC3)n1", "Potency": "inconclusive: 25.1 µM [cytotoxic, single point]"}, {"smiles": "CCC(C(=O)Nc1cccc(-c2cn3cccnc3n2)c1)c1ccccc1", "note": "(configuration not stated)", "activity change, negative = cell killing": "inactive: -4.14%"}, {"smiles": "O=C(Nc1ccc(Cl)cc1)C1CCN(c2nc3ccccc3n3cccc23)CC1", "Potency": "inconclusive: 31.6 µM [cytotoxic, single point]"}, {"smiles": "Nc1ccccc1Nc1cc(-c2cccc(Cl)c2)nn1-c1ccccc1", "Potency": "inconclusive: 12.6 µM [cytotoxic, single point]"}, {"smiles": "COc1cc(C(=O)NCC(c2cccnc2)N2CCN(c3ccc(F)cc3)CC2)cc(OC)c1OC", "note": "(configuration not stated)", "Potency": "inconclusive: 31.6 µM [cytotoxic, single point]"}, {"smiles": "CCOc1cc(CNc2ccc(O)cc2)cc(Br)c1OCc1ccccc1", "Potency": "inconclusive: 20 µM [cytotoxic, single point]"}, {"smiles": "COc1ccc(C(=O)Nc2ccc3c(c2)OCO3)cc1OC", "Potency": "inconclusive: 20 µM [cytotoxic, single point]"}, {"smiles": "Cc1ccc(CNC(=O)CCCCn2c(=O)c3ccccc3n(Cc3ccc(Cl)cc3)c2=O)cc1", "Potency": "inconclusive: 12.6 µM [cytotoxic, partial curve]"}, {"smiles": "Cc1nc2sc(C(=O)NCc3ccc(Cl)cc3)c(NC(=O)c3ccccc3)c2c(C)c1C", "Potency": "inconclusive: 15.8 µM [cytotoxic, single point]"}, {"smiles": "Cc1ccccc1NC(=O)c1nc(-c2ccncc2)no1", "activity change, negative = cell killing": "inactive: 16.6%"}, {"smiles": "CCc1ccccc1NC(=O)CSc1nnc([C@@H]2CCCN2C(=O)OC(C)(C)C)o1", "Potency": "inconclusive: 31.6 µM [cytotoxic, single point]"}, {"smiles": "Cc1ccc(NC(=O)c2cc(C)n(-c3ccccc3)c2C)cc1", "Potency": "active: 7.08 µM"}, {"smiles": "Cc1nn(-c2ccccc2)c(Cl)c1C(=O)N1CCN(c2ncnc3c2cnn3-c2ccccc2)CC1", "Potency": "inconclusive: 15.8 µM [cytotoxic, single point]"}, {"smiles": "CCC(=O)Oc1ccc(-c2nc(-c3cccnc3)no2)cc1", "Potency": "inconclusive: 10 µM [cytotoxic, single point]"}, {"smiles": "Cc1ccc(C(=O)c2coc3ccc(OCC(=O)O)cc23)cc1", "Potency": "inconclusive: 15.8 µM [cytotoxic, single point]"}, {"smiles": "Cc1ccnc(NC(c2ccccc2F)c2ccc3cccnc3c2O)c1", "note": "(configuration not stated)", "Potency": "inconclusive: 10 µM [cytotoxic, partial curve]"}, {"smiles": "CCCn1c(CN2CCN(C(=O)c3ccco3)CC2)nc2c1c(=O)n(C)c(=O)n2C", "Potency": "inconclusive: 25.1 µM [cytotoxic, partial curve]"}, {"smiles": "CCC(CC)C(=O)Nc1nnc(SCc2cc(=O)c3ccccc3[nH]2)s1", "activity change, negative = cell killing": "inactive: -7.13%"}, {"smiles": "O=C1CCCC(O)=C1C(C#Cc1ccccc1)C1=C(O)CCCC1=O", "Potency": "inconclusive: 25.1 µM [cytotoxic, single point]"}, {"smiles": "Cn1c(-c2ccc(C(=O)c3ccccc3)s2)nc2ccccc21", "Potency": "inconclusive: 1.58 µM [cytotoxic, full curve]"}, {"smiles": "CCc1ccc(NC(=O)C(=O)NCCc2sc(-c3ccc(OC)c(OC)c3)nc2C)cc1", "Potency": "inconclusive: 6.31 µM [cytotoxic, full curve, poor fit]"}, {"smiles": "CC1CCCCN1C(=O)c1ccc2c(c1)N(Cc1ccc(Cl)cc1)C(=O)c1ccccc1S2=O", "note": "(configuration not stated)", "Potency": "inconclusive: 31.6 µM [cytotoxic, single point]"}, {"smiles": "CC(C)N(Cc1ccccc1)C(=O)c1cc2ccc3cccnc3c2[nH]1", "Potency": "inconclusive: 25.1 µM [cytotoxic, partial curve, poor fit]"}]}]}
